# Source: the supplement of paper PMC12217912
# Some of the results follow. The full chains were built here from the parent and the listed change. Inactive controls read about 0.05.
# B1: TEV protease; numbered along this chain (parent)
# chain: MGESLFKGPRDYNPISSSICHLTNESDGHTTSLYGIGFGPFIITNKHLFRRNNGTLVVQSLHGVFKVKDTTTLQQHLVDGRDMIIIRMPKDFPPFPQKLKFREPQREERICLVTTNFQTKSMSSMVSDTSCTFPSGDGIFWKHWIQTKDGQCGSPLVSTRDGFIVGIHSASNFTNTNNYFTSVPKNFMELLTNQEAQQWVSGWRLNADSVLWGGHKVFMVKPEEPFQPVKEATQL
# Variants of: B1
# Assay: raw area under fraction-flipped curve 0-4 h after induction (AUC4h, not background-subtracted), DNA-recorder readout of cleavage of the substrate (dimensionless); higher = more cleavage of the substrate by the protease variant
# Details: temperature: 34 °C; time window: 0-4 h after rhamnose induction
# Procedure: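 In vivo DNA recorder in E. coli TOP10(DE3) ΔrhaA at 34 °C. Each TEVp single-site mutant (parent TEVp 0) is paired with a single-site variant of the 7-mer TEVs (canonical ENLYFQ|S). The substrate sits between flexible linkers in a Bxb1-sfGFP-TEVs-SsrA fusion, so cleavage stabilises Bxb1 and speeds flipping of a recombination array, read by NGS. The value is the raw area under the fraction-flipped curve over 0-4 h after rhamnose induction (AUC4h), with ≥20 reads per time point. It is not background-subtracted; inactive controls average about 0.047.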
# 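Also: Bxb1 expression induced with 0.2% (w/v) L-rhamnose at OD600 near 0.5, cultures sampled hourly, flipped fraction per protease–substrate barcode pair counted by paired-end Illumina sequencing.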
Variant,area with substrate ENLCFQS,area with substrate ENLFFQS,area with substrate ENLGFQS,area with substrate ENLKFQS,area with substrate ENLNFQS,area with substrate ENLPFQS,area with substrate ENLRFQS,area with substrate ENLSFQS,area with substrate ENLWFQS,area with substrate ENLDFQS
MGESLFKGPRDYNPISSSICHLTNESDGHTTSLYGIGFGPFIITNKHLFRRNNGTLVVQSLHGVFKVKDTTTLQQHLVDGRDMIIIRMPKDFPPFPQKLKFREPQREERICLVTTNFQTKSMSSMVSDTSCTFPSGDGIFWKHWIQTKDGQCGSPLVSTRDGFILGIHSASNFTNTNNYFTSVPKNFMELLTNQEAQQWVSGWRLNADSVLWGGHKVFMVKPEEPFQPVKEATQL [V165L],0.0753,0.101,0.0577,0.0896,0.0662,0.0777,0.0633,0.0658,0.0472,–
MGESLFKGPRDYNPISSSICHLTNESDGHTTSLYGIGFGPFIITNKHLFRRNNGTLVVQSLHGVFKVKDTTTLQQHLVDGRDMIIIRMPKDFPPFPQKLKFREPQREERICLKTTNFQTKSMSSMVSDTSCTFPSGDGIFWKHWIQTKDGQCGSPLVSTRDGFIVGIHSASNFTNTNNYFTSVPKNFMELLTNQEAQQWVSGWRLNADSVLWGGHKVFMVKPEEPFQPVKEATQL [V113K],0.0597,0.0715,–,0.0632,–,0.0734,0.0536,0.0454,–,0.0656
MGESLFKGPRDYNPISSSICHLTNESDGHTTSLYGIGFGPFIITNKHLFRRNNGTLVVQSLHGVFKVKDTTTLQQHLVDGRDMIIIRMPKDFPPFPQKLKFREPQREERICLVTTNFQTKSMSSMVSDTSCTFPSGDGIFWKHWIQTKDGQCGSPLVSTRDGFIVGIHSASNFTNTNNYFTSVPKNFMELLTNQEAQQWVSGWRLNADSVLWGGHKLFMVKPEEPFQPVKEATQL [V217L],0.0744,–,–,–,0.0719,0.0386,–,–,–,–
MGESLFKGPRDYNPISSSICHLTNESDGHTTSLYGIGFGPFIITNKHLFRRNNGTLVVQSLHGVFKVKDTTTLQQHLVDGRDMIIIRMPKDFPPFPQKLKFREPQREERICLVTTNFQTKSMSSMVSDTSCTFPSGDGIFWKHWIQTKDGQCGSPLVSTRDGFIVGIHSASNFTNTNNYFTSVPKNFMELLTNQEAQQWVSGWRLNADSVLWGGHKVFMVKPEEPFQPRKEATQL [V229R],0.0704,0.0919,–,0.097,0.0607,0.0565,–,0.0638,–,–
MGESLFKGPRDYNPISSSICHLTNESDGHTTSLYGIGFGPFIITNKHLFRRNNGTLVVQSLHGVFKVKDTTTLQQHLVDGRDMIIIRMPKDFPPFPQKLKFREPQREERICLVTTNFQTKSMSSMVSDTSCTFPSGDGIFWKHWIQTKDGQCGSPLVSTRDGFIVGIHSASNFTNTNNYFTSVPKNFMELLTNQEAQQWVSGWRLNADSVLWGGHKVFMVKPEEPFQPDKEATQL [V229D],0.105,0.121,0.0323,0.107,–,–,–,–,0.0869,0.0551
MGESLFKGPRDYNPISSSICHLTNESDGHTTSLYGIGFGPFIITNKHLFRRNNGTLVVQSLHGVFKVKDTTTLQQHLVDGRDMIIIRMPKDFPPFPQKLKFREPQREERICLVTTNFQTKSMSSMVSDTSCTFPSGAGIFWKHWIQTKDGQCGSPLVSTRDGFIVGIHSASNFTNTNNYFTSVPKNFMELLTNQEAQQWVSGWRLNADSVLWGGHKVFMVKPEEPFQPVKEATQL [D137A],0.0695,–,0.0616,0.075,–,–,–,–,0.0882,–
MGESLFKGPRDYNPISSSICHLTNESDGHTTSLYGIGFGPFIITNKHLFRRNNGTLVVQSLHGVFKVKDTTTLQQHLVDGRDMIIIRMPKDFPPFPQKLKFREPQREERICLVTTNFQTKSMSSMVSDTSCTFPSGDGIFWKHWIQTKDGQCGSPLVSTRDGFIVGIHSASNFTNTNNYFTSVPKNFMELLTNQEAQQWVSGWRLNADSVLWGGHKVFMSKPEEPFQPVKEATQL [V220S],0.0557,0.0924,–,–,0.0631,–,0.0657,–,–,0.0624
MGESLFKGPRDYNPISSSICHLTNESDGHTTSLYGIGFGPFIITNKHLFRRNNGTLVVQSLHGVFKVKDTTTLQQHLVDGRDMIIIRMPKDFPPFPQKLKFREPQREERICLVTTNFQTKSMSSMVSDTSCTFPSGDGIFWKHWIQTKDGQCGSPLVSTRDGFIVGIHSASNFTNTNNYFTSVPKNFMELLTNQEARQWVSGWRLNADSVLWGGHKVFMVKPEEPFQPVKEATQL [Q197R],0.0662,0.0722,–,0.0498,–,–,0.0754,0.0428,–,–
MGESLFKGPRDYNPISSSICHLTNESDGHTTSLYGIGFGPFIITNKHLFRRNNGTLVVQSLHGVFKVKDTTTLQQHLVDGRDMIIIRMPKDFPPFPQKLKFREPQREERICLVTTNFQTKSMSSMVSDTSCTFPSGDGIFWKHWIQTKDGQCGSPLVSTRDGFIVGIHSASNFTNTNNYFTSVPKNFMELLTNQEAQQWVSGWDLNADSVLWGGHKVFMVKPEEPFQPVKEATQL [R204D],0.0629,0.0702,0.0669,0.0671,0.0576,–,–,0.0589,0.0661,0.056
MGESLFKGPRDYNPISSSICHLTNESDGHTTSLYGIGFGPFIITNKHLFRRNNGTLVVQSLHGVFKVKDTTTLQQHLVDGRDMIIIRMPKDFPPFPQKLKFREPQREERICLVTTNFQTKSMSSMVSDTSCTFPSGDGIFWKHWIQTKDGQCGSPLVSTRDGFIVGIHSASNFTNTNNYFTSVPKNFMELLTNQEAQQWVSGWRYNADSVLWGGHKVFMVKPEEPFQPVKEATQL [L205Y],–,0.0781,–,–,0.068,0.0679,0.0594,0.06,0.0589,0.0781
MGESLFKGPRDYNPISSSICHLTNESDGHTTSLYGIGFGPFIITNKHLFRRNNGTLVVQSLHGVFKVKDTTTLQQHLVDGRDMIIIRMPKDFPPFPQKLKFREPQREERICLVTTNFQTKSMSSMVSDDSCTFPSGDGIFWKHWIQTKDGQCGSPLVSTRDGFIVGIHSASNFTNTNNYFTSVPKNFMELLTNQEAQQWVSGWRLNADSVLWGGHKVFMVKPEEPFQPVKEATQL [T129D],0.063,–,–,–,0.0613,–,–,–,–,–

# Same assay, conditions: temperature: 34 °C; time window: 0-4 h after rhamnose induction
Variant,area with substrate ENLQFQS,area with substrate ENLTFQS,area with substrate ENLVFQS,area with substrate ENLEFQS,area with substrate ENLHFQS,area with substrate ENLLFQS,area with substrate ENLIFQS,area with substrate ENLAFQS,area with substrate ENLMFQS
MGESLFKGPRDYNPISSSICHLTNESDGHTTSLYGIGFGPFIITNKHLFRRNNGTLVVQSLHGVFKVKDTTTLQQHLVDGRDMIIIRMPKDFPPFPQKLKFREPQREERICLKTTNFQTKSMSSMVSDTSCTFPSGDGIFWKHWIQTKDGQCGSPLVSTRDGFIVGIHSASNFTNTNNYFTSVPKNFMELLTNQEAQQWVSGWRLNADSVLWGGHKVFMVKPEEPFQPVKEATQL [V113K],0.0574,0.0625,0.0673,–,–,–,–,–,–
MGESLFKGPRDYNPISSSICHLTNESDGHTTSLYGIGFGPFIITNKHLFRRNNGTLVVQSLHGVFKVKDTTTLQQHLVDGRDMIIIRMPKDFPPFPQKLKFREPQREERICLVTTNFQTKSMSSMVSDTSCTFPSGDGIFWKHWIQTKDGQCGSPLVSTRDGFIVGIHSASNFTNTNNYFTSVPKNFMELLTNQEAQQWVSGWRLNADSVLWGGHKLFMVKPEEPFQPVKEATQL [V217L],0.075,–,–,0.0597,–,–,–,–,–
MGESLFKGPRDYNPISSSICHLTNESDGHTTSLYGIGFGPFIITNKHLFRRNNGTLVVQSLHGVFKVKDTTTLQQHLVDGRDMIIIRMPKDFPPFPQKLKFREPQREERICLVTTNFQTKSMSSMVSDTSCTFPSGDGIFWKHWIQTKDGQCGSPLVSTRDGFIVGIHSASNFTNTNNYFTSVPKNFMELLTNQEAQQWVSGWRLNADSVLWGGHKVFMVKPEEPFQPRKEATQL [V229R],0.0692,–,–,–,0.0674,0.0716,–,–,–
MGESLFKGPRDYNPISSSICHLTNESDGHTTSLYGIGFGPFIITNKHLFRRNNGTLVVQSLHGVFKVKDTTTLQQHLVDGRDMIIIRMPKDFPPFPQKLKFREPQREERICLVTTNFQTKSMSSMVSDTSCTFPSGDGIFWKHWIQTKDGQCGSPLVSTRDGFIVGIHSASNFTNTNNYFTSVPKNFMELLTNQEAQQWVSGWRLNADSVLWGGHKVFMVKPEEPFQPDKEATQL [V229D],–,–,–,–,0.0611,–,0.0802,–,–
MGESLFKGPRDYNPISSSICHLTNESDGHTTSLYGIGFGPFIITNKHLFRRNNGTLVVQSLHGVFKVKDTTTLQQHLVDGRDMIIIRMPKDFPPFPQKLKFREPQREERICLVTTNFQTKSMSSMVSDTSCTFPSGAGIFWKHWIQTKDGQCGSPLVSTRDGFIVGIHSASNFTNTNNYFTSVPKNFMELLTNQEAQQWVSGWRLNADSVLWGGHKVFMVKPEEPFQPVKEATQL [D137A],–,–,–,–,0.0706,0.0809,–,–,–
MGESLFKGPRDYNPISSSICHLTNESDGHTTSLYGIGFGPFIITNKHLFRRNNGTLVVQSLHGVFKVKDTTTLQQHLVDGRDMIIIRMPKDFPPFPQKLKFREPQREERICLVTTNFQTKSMSSMVSDTSCTFPSGDGIFWKHWIQTKDGQCGSPLVSTRDGFIVGIHSASNFTNTNNYFTSVPKNFMELLTNQEAQQWVSGWRLNADSVLWGGHKVFMSKPEEPFQPVKEATQL [V220S],0.0747,–,0.0827,0.0593,0.0792,–,–,0.0667,–
MGESLFKGPRDYNPISSSICHLTNESDGHTTSLYGIGFGPFIITNKHLFRRNNGTLVVQSLHGVFKVKDTTTLQQHLVDGRDMIIIRMPKDFPPFPQKLKFREPQREERICLVTTNFQTKSMSSMVSDTSCTFPSGDGIFWKHWIQTKDGQCGSPLVSTRDGFIVGIHSASNFTNTNNYFTSVPKNFMELLTNQEARQWVSGWRLNADSVLWGGHKVFMVKPEEPFQPVKEATQL [Q197R],0.0691,–,0.0664,0.0455,0.0575,–,–,0.0426,–
MGESLFKGPRDYNPISSSICHLTNESDGHTTSLYGIGFGPFIITNKHLFRRNNGTLVVQSLHGVFKVKDTTTLQQHLVDGRDMIIIRMPKDFPPFPQKLKFREPQREERICLVTTNFQTKSMSSMVSDTSCTFPSGDGIFWKHWIQTKDGQCGSPLVSTRDGFIVGIHSASNFTNTNNYFTSVPKNFMELLTNQEAQQWVSGWDLNADSVLWGGHKVFMVKPEEPFQPVKEATQL [R204D],–,–,–,–,0.0625,0.0605,–,–,0.0792
MGESLFKGPRDYNPISSSICHLTNESDGHTTSLYGIGFGPFIITNKHLFRRNNGTLVVQSLHGVFKVKDTTTLQQHLVDGRDMIIIRMPKDFPPFPQKLKFREPQREERICLVTTNFQTKSMSSMVSDTSCTFPSGDGIFWKHWIQTKDGQCGSPLVSTRDGFIVGIHSASNFTNTNNYFTSVPKNFMELLTNQEAQQWVSGWRYNADSVLWGGHKVFMVKPEEPFQPVKEATQL [L205Y],–,–,–,0.0623,0.0673,0.0624,0.0456,0.0489,–
MGESLFKGPRDYNPISSSICHLTNESDGHTTSLYGIGFGPFIITNKHLFRRNNGTLVVQSLHGVFKVKDTTTLQQHLVDGRDMIIIRMPKDFPPFPQKLKFREPQREERICLVTTNFQTKSMSSMVSDDSCTFPSGDGIFWKHWIQTKDGQCGSPLVSTRDGFIVGIHSASNFTNTNNYFTSVPKNFMELLTNQEAQQWVSGWRLNADSVLWGGHKVFMVKPEEPFQPVKEATQL [T129D],–,–,0.0926,0.0534,–,–,–,–,0.0723
